This assay deals with tau T40 (Homo sapiens, UniProt P10636). Nature of the assay: solid-phase immunoassay.
Chain of UniProt P10636 (P10636 2-758): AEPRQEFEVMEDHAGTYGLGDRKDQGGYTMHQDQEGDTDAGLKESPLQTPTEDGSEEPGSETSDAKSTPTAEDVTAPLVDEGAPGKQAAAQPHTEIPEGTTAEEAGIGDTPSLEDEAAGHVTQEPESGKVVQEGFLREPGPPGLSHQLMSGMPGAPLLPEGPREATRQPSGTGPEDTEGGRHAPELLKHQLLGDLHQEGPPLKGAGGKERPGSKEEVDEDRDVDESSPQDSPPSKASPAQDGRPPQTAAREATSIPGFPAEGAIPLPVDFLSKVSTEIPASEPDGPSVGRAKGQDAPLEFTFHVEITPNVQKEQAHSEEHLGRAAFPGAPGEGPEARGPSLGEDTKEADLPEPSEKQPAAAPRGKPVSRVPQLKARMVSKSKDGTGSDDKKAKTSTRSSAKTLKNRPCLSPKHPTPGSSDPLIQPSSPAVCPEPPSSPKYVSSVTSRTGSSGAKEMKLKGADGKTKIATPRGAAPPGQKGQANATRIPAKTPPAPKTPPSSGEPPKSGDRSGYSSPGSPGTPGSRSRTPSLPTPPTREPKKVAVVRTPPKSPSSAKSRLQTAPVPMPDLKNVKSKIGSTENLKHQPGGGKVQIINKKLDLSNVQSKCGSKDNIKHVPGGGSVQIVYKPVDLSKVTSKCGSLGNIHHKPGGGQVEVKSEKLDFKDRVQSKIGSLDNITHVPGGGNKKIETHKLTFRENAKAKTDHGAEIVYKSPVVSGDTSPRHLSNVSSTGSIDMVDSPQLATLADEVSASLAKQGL

B1: neonatal tau NT (protein)
chain: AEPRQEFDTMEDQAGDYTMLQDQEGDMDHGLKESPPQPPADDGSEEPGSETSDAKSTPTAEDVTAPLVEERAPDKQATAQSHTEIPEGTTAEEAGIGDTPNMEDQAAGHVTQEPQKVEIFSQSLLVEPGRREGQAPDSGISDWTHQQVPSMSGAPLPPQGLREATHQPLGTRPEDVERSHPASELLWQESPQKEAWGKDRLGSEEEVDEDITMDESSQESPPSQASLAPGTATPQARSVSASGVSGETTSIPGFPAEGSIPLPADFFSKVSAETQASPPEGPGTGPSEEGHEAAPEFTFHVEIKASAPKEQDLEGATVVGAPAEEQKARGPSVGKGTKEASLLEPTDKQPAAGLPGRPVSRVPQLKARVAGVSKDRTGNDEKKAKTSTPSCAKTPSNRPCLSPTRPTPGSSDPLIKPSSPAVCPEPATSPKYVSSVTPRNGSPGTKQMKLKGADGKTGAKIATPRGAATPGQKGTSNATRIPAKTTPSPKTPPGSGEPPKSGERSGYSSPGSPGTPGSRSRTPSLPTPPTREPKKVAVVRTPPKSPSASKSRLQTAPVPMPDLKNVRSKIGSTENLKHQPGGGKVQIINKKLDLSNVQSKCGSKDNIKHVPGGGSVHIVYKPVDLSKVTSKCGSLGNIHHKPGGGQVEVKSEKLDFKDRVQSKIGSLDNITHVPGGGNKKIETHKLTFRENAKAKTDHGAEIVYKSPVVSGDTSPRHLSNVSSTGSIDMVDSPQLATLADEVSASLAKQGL
B1 gave a Kd of 8.1 nM.

B2: neonatal tau NTP (protein)
chain: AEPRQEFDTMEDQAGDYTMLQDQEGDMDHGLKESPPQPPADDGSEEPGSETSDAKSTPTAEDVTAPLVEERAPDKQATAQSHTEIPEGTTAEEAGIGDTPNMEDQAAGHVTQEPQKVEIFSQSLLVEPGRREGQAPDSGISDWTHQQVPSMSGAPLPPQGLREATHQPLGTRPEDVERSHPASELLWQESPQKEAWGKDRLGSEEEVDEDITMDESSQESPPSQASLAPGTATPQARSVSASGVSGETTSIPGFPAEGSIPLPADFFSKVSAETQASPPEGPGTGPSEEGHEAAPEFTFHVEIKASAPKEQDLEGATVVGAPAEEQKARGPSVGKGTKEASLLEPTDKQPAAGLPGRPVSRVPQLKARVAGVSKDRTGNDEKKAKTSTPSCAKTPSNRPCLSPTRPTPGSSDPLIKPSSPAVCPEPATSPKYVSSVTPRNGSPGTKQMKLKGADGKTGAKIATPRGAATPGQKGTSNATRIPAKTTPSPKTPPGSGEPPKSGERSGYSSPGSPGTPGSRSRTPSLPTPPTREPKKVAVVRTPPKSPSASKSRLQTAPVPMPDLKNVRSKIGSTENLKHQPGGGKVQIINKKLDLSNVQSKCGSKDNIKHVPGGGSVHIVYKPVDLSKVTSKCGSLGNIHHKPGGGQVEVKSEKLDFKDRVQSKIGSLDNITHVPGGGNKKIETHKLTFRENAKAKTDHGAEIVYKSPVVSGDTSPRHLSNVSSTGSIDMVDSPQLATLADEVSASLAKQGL
modifications: hyperphosphorylated NT
B2 came in with a Kd of 10.5 nM.

As usually defined, the Kd is the free concentration of one partner at which half of the binding sites on the other are occupied at equilibrium, for simple one-to-one binding. Lower therefore signals higher affinity.

These data come from paper PMC4919914 (2016).
